# Reference: PubChem BioAssay AID1461 (National Center for Advancing Translational Sciences (NCATS), 2008)
# Where “and” joins values, the source holds several entries; their conditions need not be identical. Identical values can stand only once. About 2,300 (1%) of roughly 220,000 compounds were called active. Inconclusive means that the source gave no clear call. Such entries were picked first, then a sample of the others. Calls come from the whole dose curve; as a rule, active = well fitted inhibition curve with a large enough effect; inconclusive = small, poorly fitted or top-dose-only effect, or effect the other way; inactive = no such curve, though single readings can be large or run the other way. A potency beside an inconclusive call is a rough fit, not a confirmed value.
# Target: Neuropeptide S receptor (Homo sapiens) (UniProt Q6W5P4)
# Sequence of UniProt Q6W5P4 (Q6W5P4 whole entry, looked up): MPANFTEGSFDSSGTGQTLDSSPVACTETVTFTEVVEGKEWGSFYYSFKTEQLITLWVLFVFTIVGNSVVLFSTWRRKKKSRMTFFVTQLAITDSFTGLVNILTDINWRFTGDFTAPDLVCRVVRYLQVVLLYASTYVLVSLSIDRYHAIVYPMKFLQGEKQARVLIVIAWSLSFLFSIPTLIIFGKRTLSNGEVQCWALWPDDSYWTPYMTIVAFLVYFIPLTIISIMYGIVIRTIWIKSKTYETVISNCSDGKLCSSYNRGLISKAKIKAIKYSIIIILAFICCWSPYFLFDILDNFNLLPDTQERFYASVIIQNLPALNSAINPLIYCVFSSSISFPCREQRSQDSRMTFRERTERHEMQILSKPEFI
# Test: qHTS Assay for Antagonists of the Neuropeptide S Receptor: cAMP Signal Transduction; note: nearly all actives have a fitted effect of over 50% in size
# Conditions: CHO-NPSR cells, cAMP TR-FRET, antagonist mode; activity change, negative = inhibition: at 38.3 µM (top of the series) unless noted
# % is set by controls: 0 for no effect and ±100 for the full control effect; potency is the fitted concentration of half-maximal effect; tags give direction and shape of the fitted curve.
Compound,"activity change, negative = inhibition",Potency
Cc1cc(OCC(=O)Nc2cc(C)nn2-c2ccccn2)c2c3c(c(=O)oc2c1)CCC3,inactive: -2.02% [at 46.1 µM],–
Cc1ccc(C(=O)N[C@@H](C)CN2C3=NC[C@H](Cc4ccccc4)N3C[C@H]2Cc2ccc(O)cc2)cc1Br,–,"inconclusive: 10 µM [inhibitor, single point]"
CCCCNC(=O)c1c(N)n(Cc2ccc3c(c2)OCO3)c2nc3ccccc3nc12,–,"inconclusive: 10 µM [inhibitor, single point]"
CC1CCC/C=C/C2CC(O)CC2C(O)/C=C/C(=O)O1 (stereo not given),–,"inconclusive: 0.501 µM [inhibitor, full curve, poor fit]"
CCOC(=O)C(C)Oc1cc(C)cc2oc(=O)c3c(c12)CCCC3 (stereo not given),–,"inconclusive: 15.8 µM [inhibitor, partial curve, poor fit]"
CN(C)C1=C(C#N)C(c2ccccc2)=NP(N(C)C)(N(C)C)=N1,–,"inconclusive: 15.8 µM [inhibitor, partial curve, poor fit]"
N#CC(C#N)=Cc1ccc(C=C(C#N)C#N)cc1,–,"inconclusive: 10 µM [activator, partial curve]"
C=CCN1C(=O)NC(=O)/C(=C/c2ccc(N(C)C)c(Br)c2)C1=O,inactive: -19.9%,–
O=C1NC(=O)C(=Cc2ccc3c(c2)OCO3)C(=O)N1,inactive: -4.58%,–
CCCCCCCCCCCCCC(=O)O[C@@H]1[C@@H](C)[C@@]2(O)[C@@H](C=C(CO)C[C@@]3(O)C(=O)C(C)=C[C@@H]23)C2C(C)(C)[C@@]21OC(C)=O (stereo not given in full),–,"inconclusive: 6.31 µM [inhibitor, partial curve]"
CCCCCCCSc1cc(OC)c(CCN(C)C)cc1OC,–,"inconclusive: 10 µM [inhibitor, single point]"
Oc1cccc2nc3ccccc3nc12,–,"inconclusive: 15.8 µM [activator, single point]"
CCCCn1c(O)c(C(CC)=Nc2ccc(OC)cc2OC)c(=O)[nH]c1=O,inactive: -16.4% [at 46.1 µM],–
CCCCCCCCCCCCn1ccc(=N)cc1,–,active: 6.31 µM
O=c1[nH]c(=O)n(C2CCCCC2)c(O)c1/C=C/C=Nc1ccccc1,–,"inconclusive: 12.6 µM [inhibitor, single point]"
O=C1NC(=O)N(c2ccccc2)C(=O)/C1=C/C=C/c1ccco1,–,"inconclusive: 12.6 µM [inhibitor, single point]"
C=CCn1c(O)c(C(CC)=Nc2ccc(N(CC)CC)cc2)c(=O)[nH]c1=O,–,"inconclusive: 10 µM [inhibitor, single point]"
O=C1NC(=O)N(c2ccccc2)C(=O)/C1=C/c1ccc([N+](=O)[O-])s1,–,"inconclusive: 25.1 µM [inhibitor, single point]"
CN(C)c1ncc(/C=C2/C(=O)NC(=S)N(C3CCCCC3)C2=O)cn1,–,active: 10 µM
CCN1CCN(c2ncnc3ccc(Br)cc23)CC1,–,"inconclusive: 3.16 µM [inhibitor, single point]"
Fc1ccc2c(c1)nnn2C1CCN(Cc2nnnn2C2CCCCC2)CC1,–,"inconclusive: 7.94 µM [inhibitor, partial curve]"
Cc1c2ccncc2c(C)c2c1[nH]c1ccccc12,–,"inconclusive: 10 µM [inhibitor, partial curve]"

Compound,"activity change, negative = inhibition",Potency
C=Cn1ccnc1P(=S)(c1nccn1C=C)c1nccn1C=C,inactive: 1.49% [at 46.1 µM],–
CCOC(=O)C(O)(c1ccc(NC(=O)c2ccc(Cl)c(Cl)c2)cc1)C(F)(F)F (stereo not given),–,"inconclusive: 20 µM [activator, single point]"
CN(C)c1ccc(NC(=O)CN2C(=O)CN=C(c3ccccc3)c3cc(Cl)ccc32)cc1,–,"inconclusive: 12.6 µM [inhibitor, single point]"
O=C(c1ccc(CNS(=O)(=O)c2ccccc2)cc1)N1CCC2(CC1)OCCO2,–,"inconclusive: 2 µM [inhibitor, full curve, poor fit]"
COc1cccc(-c2cc(C(F)(F)F)n3nc(C(=O)N4CCC5(CC4)OCCO5)cc3n2)c1,inactive: -15.4% [at 46.1 µM],–
CC(=O)Oc1ccccc1C(=O)Nc1ncc([N+](=O)[O-])s1,–,active: 3.16 µM
O=c1c2ccccc2nc(/C=C\c2ccccc2[N+](=O)[O-])n1-c1ccccc1O,–,"inconclusive: 20 µM [activator, single point]"
Clc1ccc2c(c1)C(c1ccccc1Cl)=NCc1nnc(N3CCN(CCSc4ccccc4)CC3)n1-2,–,"inconclusive: 10 µM [inhibitor, partial curve]"
CCC(C)(C)n1nnnc1C(c1cccs1)N1CC=C(c2ccc(F)cc2)CC1 (stereo not given),–,"inconclusive: 12.6 µM [inhibitor, partial curve]"
OCCN1CCN(CCCN2c3ccccc3Sc3ccc(C(F)(F)F)cc32)CC1,–,"inconclusive: 10 µM [inhibitor, partial curve] and inconclusive: 25.1 µM [inhibitor, single point]"
Cc1ccc(Sc2ccc(C=C3C(=O)N(C)C(=O)N(C)C3=O)o2)cc1,–,"inconclusive: 10 µM [inhibitor, single point]"
COc1ccc(C(=O)C2CCCN(C3CSCCSC3)C2)c(OC)c1 (stereo not given),inactive: 24.5%,–
Cc1ccc(Cl)cc1N1CCN(C(=O)c2cn(C)c(=O)c3c2c2ccccc2n3C)CC1,–,"inconclusive: 15.8 µM [inhibitor, partial curve]"
CCCCn1c(O)c(C(C)=NCCc2c[nH]c3ccccc23)c(=O)[nH]c1=O,–,"inconclusive: 25.1 µM [inhibitor, single point]"
Cc1cc(C)cc(N2C(=O)NC(=O)/C(=C\C=C\c3ccco3)C2=O)c1,–,active: 10 µM
C=CCOC(=O)COc1cc(C)cc2oc(=O)c3c(c12)CCC3,–,"inconclusive: 10 µM [inhibitor, partial curve]"
FC(F)(F)c1ccc2c(c1)ncn2C1CCN(Cc2nnnn2C2CCCCC2)CC1,–,"inconclusive: 3.98 µM [inhibitor, single point]"
CCOC(=O)c1c(/N=C/C2C(=O)NC(=S)NC2=O)sc(C)c1C,inactive: -12.3%,–
Cc1cccc(N2C(=O)NC(=O)/C(=C\c3cnn(-c4ccccc4)c3)C2=O)c1,–,active: 10 µM
COCCCNC(=O)c1c(N)n(Cc2ccco2)c2nc3ccccc3nc12,inactive: -52.4%,–
COCCNC(=O)c1c(N)n(Cc2ccco2)c2nc3ccccc3nc12,–,"inconclusive: 10 µM [inhibitor, partial curve, poor fit]"
O=C(/C=C/c1ccc2c(c1)OCO2)c1c(O)n(CCC2=CCCCC2)c(=O)[nH]c1=O,–,"inconclusive: 12.6 µM [inhibitor, single point]"

Compound,"activity change, negative = inhibition",Potency
COc1cccc(NP(=O)(Oc2ccc(Cl)cc2)Oc2ccc(Cl)cc2)c1,–,"inconclusive: 10 µM [inhibitor, single point]"
CCCCC/C=C\C/C=C\C/C=C\C/C=C\CCCC(=O)Nc1ccc(O)cc1,–,"inconclusive: 10 µM [inhibitor, single point]"
CN(C)c1ccc(/C=C/C=C/c2sc3ccccc3[n+]2C)cc1,–,"inconclusive: 3.16 µM [activator, partial curve]"
CC(N=Cc1c(O)[nH]c(=O)[nH]c1=O)c1ccccc1 (stereo not given),–,"inconclusive: 0.398 µM [inhibitor, partial curve, poor fit]"
COc1ccc(Oc2cc(NC(=O)c3nn(C)cc3[N+](=O)[O-])cc([N+](=O)[O-])c2)cc1,–,"inconclusive: 7.94 µM [inhibitor, partial curve]"
COc1ccccc1N1C(=O)NC(=O)/C(=C/c2ccc3c4c(cccc24)CC3)C1=O,–,active: 10 µM
O=C1NC(=O)N(Cc2ccccc2)C(=O)/C1=C/C=C/c1ccco1,–,"inconclusive: 25.1 µM [activator, single point]"
Cc1ccc(S(=O)(=O)N[C@@H](CCCCN)C(=O)CCl)cc1,inactive: 12.3% [at 46.1 µM],–
CN(C[C@H](Cc1ccccc1)N(C[C@H](Cc1ccccc1)N(CCC(C)(C)C)N=O)N=O)N=O,–,"inconclusive: 3.16 µM [activator, full curve, poor fit]"
CN1C(=O)C(=Cc2ccccc2Oc2ccc(Cl)cc2)C(=O)N(C)C1=O,–,"inconclusive: 15.8 µM [inhibitor, partial curve]"
COc1cccc(/C=C2\N=C(c3cncc(Br)c3)OC2=O)c1,–,"inconclusive: 25.1 µM [inhibitor, single point]"
CN(C(=O)Cc1ccc(Cl)c(Cl)c1)C(CN1CCCC1)c1cccc(OCC(=O)O)c1 (stereo not given),–,"inconclusive: 31.6 µM [inhibitor, single point]"
COc1nc2ccccc2c(=O)n1-c1ccc(Cl)cc1,inactive: -7.47%,–
Nc1c(C(=O)NC2CCCC2)c2nc3ccccc3nc2n1CC1CCCO1 (stereo not given),–,active: 12.6 µM
COc1ccc(-c2n[nH]c(=S)n2-c2ccc3c(c2)OCCO3)cc1OC,–,"inconclusive: 3.98 µM [activator, single point]"
O=C(Cc1ccccc1)N1CCN(CC2CC=CCC2)CC1 (stereo not given),inactive: 1.44% [at 46.1 µM],–
CC[C@@H](CO)NC(=O)[C@H]1C=C2c3cccc4c3c(cn4C)C[C@H]2N(C)C1,–,"inconclusive: 15.8 µM [inhibitor, single point]"
CCOC(=O)c1ccc(NC(c2ccc(N(C)C)cc2)P(=O)(OC(C)C)OC(C)C)cc1 (stereo not given),–,"inconclusive: 10 µM [inhibitor, single point]"
Cc1ccc(-c2cc(-c3ccc(C)cc3)[n+](C)o2)cc1,inactive: 7.93%,–
CCC(=NCCCn1ccnc1)c1c(O)n(-c2ccc(OC)cc2)c(=O)[nH]c1=O,–,"inconclusive: 12.6 µM [activator, single point]"
O=C1NC(=O)C2(C(=O)N1)C(c1ccc(F)cc1)NC(=S)NC2c1ccc(F)cc1 (stereo not given),–,"inconclusive: 3.98 µM [inhibitor, single point]"
